From the supplement of paper PMC8948288
Shown are siRNA guide strands that differ only in the seed, positions 2 to 7.

Experiments:
H4 = experiment: cell viability relative to siNT1 (ATP content); H4 human neuroglioma and GL261 mouse glioma; higher = less toxic; conditions: siRNA concentration 10 nM; 96 h; human
GL261 = experiment: as above; conditions: siRNA concentration 25 nM; 96 h; mouse
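Also: cells reverse transfected with siRNA duplexes via lipid reagent, ATP read by luminescence, triplicate wells, values scaled to mean viability with non-targeting control siNT1.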

UCUCACAACAUGUAAACCA
cell viability (H4): 89.3% | cell viability (GL261): 28.4%

UCUCACCACAUGUAAACCA
cell viability (H4): 68.4% | cell viability (GL261): 18.4%

UCUCACGACAUGUAAACCA
cell viability (H4): 107% | cell viability (GL261): 28.9%

UCUCACUACAUGUAAACCA
cell viability (H4): 77.2% | cell viability (GL261): 29%

UCUCAGAACAUGUAAACCA
cell viability (H4): 78.7% | cell viability (GL261): 28.3%

UCUCAGCACAUGUAAACCA
cell viability (H4): 66.4% | cell viability (GL261): 15.7%

UCUCAGGACAUGUAAACCA
cell viability (H4): 87.4% | cell viability (GL261): 47.1%

UCUCAGUACAUGUAAACCA
cell viability (H4): 90.1% | cell viability (GL261): 19.6%

UCUCAUAACAUGUAAACCA
cell viability (H4): 86.2% | cell viability (GL261): 21%

UCUCAUCACAUGUAAACCA
cell viability (H4): 88.6% | cell viability (GL261): 40.4%

UCUCAUGACAUGUAAACCA
cell viability (H4): 88.6% | cell viability (GL261): 20.6%

UCUCAUUACAUGUAAACCA
cell viability (H4): 121% | cell viability (GL261): 33%

UCUCCAAACAUGUAAACCA
cell viability (H4): 102% | cell viability (GL261): 53.1%

UCUCCACACAUGUAAACCA
cell viability (H4): 100% | cell viability (GL261): 39.8%

UCUCCAGACAUGUAAACCA
cell viability (H4): 94.1% | cell viability (GL261): 37.5%

UCUCCAUACAUGUAAACCA
cell viability (H4): 98.1% | cell viability (GL261): 46.9%

UCUCCCAACAUGUAAACCA
cell viability (H4): 101% | cell viability (GL261): 46%

UCUCCCCACAUGUAAACCA
cell viability (H4): 66.3% | cell viability (GL261): 37.2%

UCUCCCGACAUGUAAACCA
cell viability (H4): 98.5% | cell viability (GL261): 49.1%

UCUCCCUACAUGUAAACCA
cell viability (H4): 81.7% | cell viability (GL261): 52.1%

UCUCCGAACAUGUAAACCA
cell viability (H4): 87.5% | cell viability (GL261): 38.7%

UCUCCGCACAUGUAAACCA
cell viability (H4): 51% | cell viability (GL261): 11.4%

UCUCCGGACAUGUAAACCA
cell viability (H4): 87% | cell viability (GL261): 40.3%

UCUCCGUACAUGUAAACCA
cell viability (H4): 86.9% | cell viability (GL261): 35.2%

UCUCCUAACAUGUAAACCA
cell viability (H4): 83.8% | cell viability (GL261): 45.4%

UCUCCUCACAUGUAAACCA
cell viability (H4): 57% | cell viability (GL261): 20.5%

UCUCCUGACAUGUAAACCA
cell viability (H4): 92.8% | cell viability (GL261): 46.6%

UCUCCUUACAUGUAAACCA
cell viability (H4): 83% | cell viability (GL261): 41.5%

UCUCGAAACAUGUAAACCA
cell viability (H4): 112% | cell viability (GL261): 46%

UCUCGACACAUGUAAACCA
cell viability (H4): 77.2% | cell viability (GL261): 51.1%

UCUCGAGACAUGUAAACCA
cell viability (H4): 87% | cell viability (GL261): 46%

UCUCGAUACAUGUAAACCA
cell viability (H4): 81.7% | cell viability (GL261): 42.1%

UCUCGCAACAUGUAAACCA
cell viability (H4): 72.5% | cell viability (GL261): 28.4%

UCUCGCCACAUGUAAACCA
cell viability (H4): 75.1% | cell viability (GL261): 23.1%

UCUCGCGACAUGUAAACCA
cell viability (H4): 82.3% | cell viability (GL261): 56.3%

UCUCGCUACAUGUAAACCA
cell viability (H4): 99.1% | cell viability (GL261): 30.2%

UCUCGGAACAUGUAAACCA
cell viability (H4): 80.5% | cell viability (GL261): 33.4%

UCUCGGCACAUGUAAACCA
cell viability (H4): 36.4% | cell viability (GL261): 28.8%

UCUCGGGACAUGUAAACCA
cell viability (H4): 90.3% | cell viability (GL261): 32.5%

UCUCGGUACAUGUAAACCA
cell viability (H4): 75.2% | cell viability (GL261): 41.6%

UCUCGUAACAUGUAAACCA
cell viability (H4): 73.9% | cell viability (GL261): 42.6%

UCUCGUCACAUGUAAACCA
cell viability (H4): 79.4% | cell viability (GL261): 34%

UCUCGUGACAUGUAAACCA
cell viability (H4): 84.1% | cell viability (GL261): 66.9%

UCUCGUUACAUGUAAACCA
cell viability (H4): 90.1% | cell viability (GL261): 48.9%

UCUCUAAACAUGUAAACCA
cell viability (H4): 79.7% | cell viability (GL261): 40.1%

UCUCUACACAUGUAAACCA
cell viability (H4): 78.9% | cell viability (GL261): 47.2%

UCUCUAGACAUGUAAACCA
cell viability (H4): 105% | cell viability (GL261): 44.9%

UCUCUAUACAUGUAAACCA
cell viability (H4): 89.2% | cell viability (GL261): 45.2%

UCUCUCAACAUGUAAACCA
cell viability (H4): 111% | cell viability (GL261): 27.5%

UCUCUCCACAUGUAAACCA
cell viability (H4): 50% | cell viability (GL261): 9.65%

UCUCUCGACAUGUAAACCA
cell viability (H4): 79% | cell viability (GL261): 35.7%

UCUCUCUACAUGUAAACCA
cell viability (H4): 79.4% | cell viability (GL261): 24.2%

UCUCUGAACAUGUAAACCA
cell viability (H4): 95.6% | cell viability (GL261): 33.9%

UCUCUGCACAUGUAAACCA
cell viability (H4): 31.3% | cell viability (GL261): 13%

UCUCUGGACAUGUAAACCA
cell viability (H4): 52.2% | cell viability (GL261): 28.3%

UCUCUGUACAUGUAAACCA
cell viability (H4): 62.6% | cell viability (GL261): 19.1%

UCUCUUAACAUGUAAACCA
cell viability (H4): 95.1% | cell viability (GL261): 39.1%

UCUCUUCACAUGUAAACCA
cell viability (H4): 41.5% | cell viability (GL261): 13.4%

UCUCUUGACAUGUAAACCA
cell viability (H4): 108% | cell viability (GL261): 39.6%

UCUCUUUACAUGUAAACCA
cell viability (H4): 85.6% | cell viability (GL261): 32.8%

UCUGAAAACAUGUAAACCA
cell viability (H4): 96.6% | cell viability (GL261): 59.5%

UCUGAACACAUGUAAACCA
cell viability (H4): 81.8% | cell viability (GL261): 59.8%

UCUGAAGACAUGUAAACCA
cell viability (H4): 76% | cell viability (GL261): 54.8%

UCUGAAUACAUGUAAACCA
cell viability (H4): 80.3% | cell viability (GL261): 72%

UCUGACAACAUGUAAACCA
cell viability (H4): 75.8% | cell viability (GL261): 44.3%

UCUGACCACAUGUAAACCA
cell viability (H4): 45.7% | cell viability (GL261): 30.8%

UCUGACGACAUGUAAACCA
cell viability (H4): 87.4% | cell viability (GL261): 45.2%

UCUGACUACAUGUAAACCA
cell viability (H4): 89.8% | cell viability (GL261): 62.6%

UCUGAGAACAUGUAAACCA
cell viability (H4): 83.8% | cell viability (GL261): 58%

UCUGAGCACAUGUAAACCA
cell viability (H4): 45% | cell viability (GL261): 29.3%

UCUGAGGACAUGUAAACCA
cell viability (H4): 75% | cell viability (GL261): 53.1%

UCUGAGUACAUGUAAACCA
cell viability (H4): 96.1% | cell viability (GL261): 48.8%

UCUGAUAACAUGUAAACCA
cell viability (H4): 88.2% | cell viability (GL261): 45.3%

UCUGAUCACAUGUAAACCA
cell viability (H4): 86.5% | cell viability (GL261): 76.2%

UCUGAUGACAUGUAAACCA
cell viability (H4): 108% | cell viability (GL261): 46.3%

UCUGAUUACAUGUAAACCA
cell viability (H4): 105% | cell viability (GL261): 42.5%

UCUGCAAACAUGUAAACCA
cell viability (H4): 92.7% | cell viability (GL261): 55.4%

UCUGCACACAUGUAAACCA
cell viability (H4): 59% | cell viability (GL261): 25.9%

UCUGCAGACAUGUAAACCA
cell viability (H4): 77.6% | cell viability (GL261): 71.4%

UCUGCAUACAUGUAAACCA
cell viability (H4): 108% | cell viability (GL261): 39.5%

UCUGCCAACAUGUAAACCA
cell viability (H4): 79.8% | cell viability (GL261): 62.5%

UCUGCCCACAUGUAAACCA
cell viability (H4): 54.1% | cell viability (GL261): 12.8%

UCUGCCGACAUGUAAACCA
cell viability (H4): 91.8% | cell viability (GL261): 43.8%

UCUGCCUACAUGUAAACCA
cell viability (H4): 59.2% | cell viability (GL261): 37.5%

UCUGCGAACAUGUAAACCA
cell viability (H4): 79.8% | cell viability (GL261): 54.7%

UCUGCGCACAUGUAAACCA
cell viability (H4): 86.1% | cell viability (GL261): 18.5%

UCUGCGGACAUGUAAACCA
cell viability (H4): 87% | cell viability (GL261): 39.7%

UCUGCGUACAUGUAAACCA
cell viability (H4): 112% | cell viability (GL261): 45.7%

UCUGCUAACAUGUAAACCA
cell viability (H4): 78.7% | cell viability (GL261): 56.2%

UCUGCUCACAUGUAAACCA
cell viability (H4): 78.4% | cell viability (GL261): 29.5%
